The structures appear in SMILES notation. This list holds what a sample rich in strong results left over.
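Further: KINOMEscan kinase panel screen.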

This test relates to EPHB3. To be noted: concentration: 1 μM,replicates: in singlicate; n = 1.
Regarding `O=C1NC(=O)C(c2ccccc2)=C1Nc1cc(Cl)c(O)c(Cl)c1` [SB-390530], the “%Inh” value is 10%.
`O=C1NC(=O)C(c2ccccc2Cl)=C1Nc1cccc(C(=O)O)c1` [SB-390526]: the “%Inh” value amounted to 13%.
On to `O=C1NC(=O)C(c2ccc(Cl)cc2)=C1Nc1ccccc1` [SB-317661], for which the “%Inh” value is recorded as 0%.
To `COc1ccc(C2=C(Nc3cccc(Cl)c3)C(=O)NC2=O)cc1` [SB-326892] belongs 14%; to `O=C1NC(=O)C(c2ccc(Cl)cc2)=C1Nc1cccc(O)c1` [SB-333613], 0%; to `O=C(O)c1ccc(-c2nc(-c3ccc(F)cc3)c(-c3ccncc3)[nH]2)cc1` [SB-202620], 23%.
The same measure for `O=C1NC(=O)C(c2ccc(Cl)cc2)=C1Nc1ccc(O)c(Cl)c1` [SB-405367]: 1%; for `O=C1NC(=O)C(c2ccccc2Cl)=C1Nc1ccccc1` [SB-376715]: 0%; for `Cc1ccc(C)c(Oc2nccc(-c3c(-c4ccc(F)cc4)ncn3C3CCNCC3)n2)c1.O=C(O)C(F)(F)F.O=C(O)C(F)(F)F.O=C(O)C(F)(F)F` [SB-284852]: 15%.
The same measure for `O=C1NC(=O)C(c2ccc(Cl)cc2)=C1Nc1cccc(C(=O)O)c1` [SB-360737]: 7%.
As for `Cc1cc(C)cc(Oc2nccc(-c3c(-c4ccc(F)cc4)ncn3C3CCNCC3)n2)c1.O=C(O)C(F)(F)F.O=C(O)C(F)(F)F.O=C(O)C(F)(F)F` [SB-284851], the “%Inh” value turned out to be 12%.
To `COc1cccc(C2=C(Nc3ccc(SC)cc3)C(=O)NC2=O)c1` [SB-331032] belongs 5%.
The same measure for `O=C1NC(=O)c2c1c(-c1ccccc1)cc1[nH]c3ccc(O)cc3c21`: 15%.

(Values after publication PMC5540273 (PLoS ONE, 2017).)
